# Experimental data: the supplement of paper PMC12217912
# The list shows a part of the results. The full chains were built here from the parent and the listed change. Inactive controls read about 0.05.
# B1: TEV protease; numbered along this chain (parent)
# chain: MGESLFKGPRDYNPISSSICHLTNESDGHTTSLYGIGFGPFIITNKHLFRRNNGTLVVQSLHGVFKVKDTTTLQQHLVDGRDMIIIRMPKDFPPFPQKLKFREPQREERICLVTTNFQTKSMSSMVSDTSCTFPSGDGIFWKHWIQTKDGQCGSPLVSTRDGFIVGIHSASNFTNTNNYFTSVPKNFMELLTNQEAQQWVSGWRLNADSVLWGGHKVFMVKPEEPFQPVKEATQL
# Variants of: B1
# Assay: raw area under fraction-flipped curve 0-4 h after induction (AUC4h, not background-subtracted), DNA-recorder readout of cleavage of the substrate (dimensionless); higher = more cleavage of the substrate by the protease variant
# Conditions: temperature: 34 °C; time window: 0-4 h after rhamnose induction
# 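Also: Bxb1 expression induced with 0.2% (w/v) L-rhamnose at OD600 near 0.5, cultures sampled hourly, flipped fraction per protease–substrate barcode pair counted by paired-end Illumina sequencing.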
Variant,area with substrate CNLYFQS,area with substrate DNLYFQS,area with substrate HNLYFQS,area with substrate INLYFQS,area with substrate KNLYFQS,area with substrate LNLYFQS,area with substrate MNLYFQS,area with substrate SNLYFQS,area with substrate VNLYFQS,area with substrate WNLYFQS,area with substrate YNLYFQS,area with substrate FNLYFQS,area with substrate PNLYFQS,area with substrate RNLYFQS,area with substrate TNLYFQS,area with substrate GNLYFQS,area with substrate NNLYFQS,area with substrate QNLYFQS
MGESLFKGPRDYNPISSSICHLTNESDGHTTSLYGIGFGPFIITNKHLFRRNNGTLVVQSLHGVFKVKDTTTLQQHLVDGRDMIIIRMPKDFPPFPQKLKFREPQREERICLVTTNFQTKSMSSMVSDTSCTFPSGDGIFWKHWIQTKDGQCGSPLVSTRDGFIVGIHSASNFTNTNNYFTSVPKNFMELLTNQEAQQWVSGWRLNADSVLVGGHKVFMVKPEEPFQPVKEATQL [W212V],0.0793,0.0613,0.0603,0.0577,0.0621,0.0424,0.0698,0.0663,0.0665,0.0628,0.0682,–,–,–,–,–,–,–
MGESLFKGPRDYNPISSSICHLTNESDGHTTSLYGIGFGPFIITNKHLFRRNNGTLVVQSLHGVFKVKDTTTLQQHLVDGRDMIIIRMPKDFPPFPQKLKFREPQREERICLVTTNFQTKSMSSMVSDTSCTFPSGDGIFWKHWIQTKDGQCGSPLVSTRDGFIVGIHSASNFTNTNNYFTSVPKNFMELLTNQEAQQWVSGWRLNADSVLWGGHNVFMVKPEEPFQPVKEATQL [K216N],0.0733,–,0.0664,0.0639,–,0.0625,–,–,–,0.0697,0.0694,0.0663,0.0614,0.0597,0.0736,–,–,–
MGESLFKGPRDYNPISSSICHLTNESDGHTTSLYGIGFGPFIITNKHLFRRNNGTLVVQSLHGVFKVKDTTTLQQHLVDGRDMIIIRMPKDFPPFPQKLKFREPQREERICLVTTNFQTKSMSSMVSDTSCTFPSGDGIFWKHWIQTKDGQCGSPLVSTRDGFIVGIHSASNFTNTNNYFTSVPKNFMELLTNQEAQQWVSGWRLNADSVLWGGHTVFMVKPEEPFQPVKEATQL [K216T],0.0802,–,0.0614,0.0542,–,–,0.0877,0.068,0.0541,0.0659,0.0574,0.0744,0.0681,0.0501,0.0638,0.0648,–,–
MGESLFKGPRDYNPISSSICHLTNESDGHTTSLYGIGFGPFIITNKHLFRRNNGTLVVQSLHGVFKVKDTTTLQQHLVDGRDMIIIRMPKDFPPFPQKLKFREPQREERICLVTTNFQTKSMSSMVSDTSCTFPSGDGIFWKHWIQTKDGQCGSPLVSTRDGFIVGIHSASNFTNTNNYFTSVPKNFMELLTNQEAQQWVSGWRLNADSVLWGGHVVFMVKPEEPFQPVKEATQL [K216V],0.0611,–,0.0597,–,0.0722,0.0626,–,0.0679,0.0419,0.063,–,–,0.0685,–,0.0687,–,0.0663,–
MGESLFKGPRDYNPISSSICHLTNESDGHTTSLYGIGFGPFIITNKHLFRRNNGTAVVQSLHGVFKVKDTTTLQQHLVDGRDMIIIRMPKDFPPFPQKLKFREPQREERICLVTTNFQTKSMSSMVSDTSCTFPSGDGIFWKHWIQTKDGQCGSPLVSTRDGFIVGIHSASNFTNTNNYFTSVPKNFMELLTNQEAQQWVSGWRLNADSVLWGGHKVFMVKPEEPFQPVKEATQL [L56A],–,0.0612,0.0603,0.0531,0.0632,–,0.0605,–,0.0584,0.0475,–,0.0621,–,–,–,0.0776,–,–
MGESLFKGPRDYNPISSSICHLTNESDGHTTSLYGIGFGPFIITNKHLFRRNNGTLVVQSLHGVFKVKDTTTLQQHLVDGRDMIIIRMPKDFPPFPQKLKFREPQREERICLVTTNFQTKSMSSMVSDTSCTFPSGDGIFWKHWIQTKDGQCGSPLVSTRDGFIVGIHSASNFTNTNNYFTSVPKNFMELLTNQEAQQWVSGWRLNADSVLWGGHKVFMVKPEEPFQPVKERTQL [A232R],0.0504,0.0772,0.0659,0.0715,–,–,0.074,–,–,0.0617,0.0613,0.0656,0.0728,0.0623,0.0684,0.088,0.0686,0.068
MGESLFKGPRDYNPISSSICHLTNESDGHTTSLYGIGFGPFIITNKHLFRRNNGTLVVQSLHGVFKVKDTTTLQQHLVDGRDMIIIRMPKDFPPFPQKLKFREPQREERICLVTTNFQTKSMSSMVSDTSCTFPSGDGIFWKHWIQTKDGQCGSPLVSTRDGFIVGIHSASNFTNTNNYFTSVPKNFMELLTNQEAQQWVSGWRLNADSVLWGGHKVFMVKPEEPFQPVKEETQL [A232E],0.0674,–,0.0623,0.0566,0.105,–,–,0.0543,0.076,0.061,0.0632,–,0.0832,–,–,0.0571,–,0.0601
MGESLFKGPRDYNPISSSICHLTNESDGHTTSLYGIGFGPFIITNKHLFRRNNGTLVVQSLHGVFKVKDTTTLQQHLVDGRDMIIIRMPKDFPPFPQKLKFREPQREERICLVTTNFQTKSMSSMVSDTSCTFPSGDGIFWKHWIQTKDGQCGSPLVSTRDGFIVGIHSASNFTNTNNYFTSVPKNFMELLTNQEAQQWVSGWRLNADSVLWGGHKVFMVKPEEPFQPVKEQTQL [A232Q],0.0751,–,0.0674,–,0.0619,0.0585,0.0579,0.0595,0.0655,0.0663,–,–,–,–,–,–,–,0.0456
MGESLFKGPRDYNPISSSICHLTNESDGHTTSLYGIGFGPFIITNKHLFRRNNGTLVVQSLHGVFKVKDTTTLQQHLVDGRDMIIIRMPKDFPPFPQKLKFREPQREERICLVTTNFQTKSMSSMVSDTSCTFPSGDGIFWKHWIQTKDGQCGSPLVSTRDGFIVGIHSASNFTNTNNYFTSVPKNFMELLTNQEAQQWVSGWRLNADSVLWGGHKVFMVKPEIPFQPVKEATQL [E224I],0.0573,0.0781,0.0506,0.0544,0.0584,0.0747,0.0859,–,0.058,–,0.0664,–,0.0761,–,0.0497,0.0704,0.0519,–
MGESLFKGPRDYNPISSSICHLTNESDGHTTSLYGIGFGPFIITNKHLFRRNNGTLVVQSLHGVFKVKDTTTLQQHLVDGRDMIIIRMPKDFPPFPQKLKFREPQREERICLVTTNFQTKSMSSMVSDTSCTFPSGDGIFWKHWIQTKDGQCGSPLVSTRDGFIVGIHSASNFTNTNNYFTSVPKNFMELLTNQEAQQWVSGWRLNADSVLWGGHKVFMVKPEQPFQPVKEATQL [E224Q],0.064,0.0737,0.0659,0.0616,0.0717,0.0683,–,0.0715,0.061,0.0608,0.0605,0.0727,0.0766,–,0.0453,–,0.0689,–
MGESLFKGPRDYNPISSSICHLTNESDGHTTSLYGIGFGPFIITNKHLFRRNNGTLVVQSLHGVFKVKDTTTLQQHLVDGRDMIIIRMPKDFPPFPQKLKFREPQREERICLVTTNFQTKSMSSMVSDTSCTFPSGDGIFWKHWIQTKDGQCGSPLVSTRDGFIVGIHSASNFTNTNNYFTSVPKNFMELLTNQEAQQWVSGWRLNADSVLWGGHKVFMVKPELPFQPVKEATQL [E224L],0.0702,–,0.078,0.075,–,0.06,0.0554,0.0632,–,0.0689,–,–,0.0574,0.0784,0.0372,0.075,–,–
MGESLFKGPRDYNPISSSICHLTNESDGHTTSLYGIGFGPFIITNKHLFRRNNGTLVVQSLHGVFKVKDTTTLQQHLVDGRDMIIIRMPKDFPPFPQKLKFREPQREERICLVTTNFQTKSMSSMVSDTSCTFPSGDGIFWKHWIQTKDGQCGSPLVSTRDGFIVGIHSASNFTNTNNYFTSVPKNFMELLTNQEAQQWVSGWRLNADSVLWGGHKVFMVEPEEPFQPVKEATQL [K221E],0.0557,0.0606,0.0687,0.056,0.0729,0.0595,–,0.0583,0.0591,0.0591,–,0.0599,0.0555,–,0.052,0.0478,–,0.0441
MGESLFKGPRDYNPISSSICHLTNESDGHTTSLYGIGFGPFIITNKHYFRRNNGTLVVQSLHGVFKVKDTTTLQQHLVDGRDMIIIRMPKDFPPFPQKLKFREPQREERICLVTTNFQTKSMSSMVSDTSCTFPSGDGIFWKHWIQTKDGQCGSPLVSTRDGFIVGIHSASNFTNTNNYFTSVPKNFMELLTNQEAQQWVSGWRLNADSVLWGGHKVFMVKPEEPFQPVKEATQL [L48Y],–,0.0546,0.0407,–,0.0661,–,0.0705,0.0672,–,0.0585,0.0529,–,–,0.0571,0.0572,–,0.0549,–
MGESLFKGPRDYNPISSSICHLTNESDGHTTSLYGIGFGPFIITNKHTFRRNNGTLVVQSLHGVFKVKDTTTLQQHLVDGRDMIIIRMPKDFPPFPQKLKFREPQREERICLVTTNFQTKSMSSMVSDTSCTFPSGDGIFWKHWIQTKDGQCGSPLVSTRDGFIVGIHSASNFTNTNNYFTSVPKNFMELLTNQEAQQWVSGWRLNADSVLWGGHKVFMVKPEEPFQPVKEATQL [L48T],–,0.0634,0.0598,0.0597,0.0639,–,0.0714,0.0538,0.0396,0.0543,0.0551,0.044,0.0719,–,0.0633,0.0596,–,–
MGESLFKGPRDYNPISSSICHLTNESDGHTTSLYGIGFGPFIITNKHLFRRNNGTLVVQSLHGVFKVKDTTTLQQHLVDGRDMIIIRMPKDFPPFPQKLKFREPQREERICLVTTNFQTKSMSSMVSDTSCTFPSGDGIFWKHWIQTKDGQCGSPLVSTRDGFIVGIHSASNFTNTNNYFTSVPKNFMELLTNQEAQQWVSGWRLNADSVLWGGQKVFMVKPEEPFQPVKEATQL [H215Q],0.0646,0.0372,–,0.0588,0.0833,0.0604,–,0.0681,0.0585,0.0607,–,–,–,–,0.067,–,–,–
MGESLFKGPRDYNPISSSICHLTNESDGHTTSLYGIGFGPFIITNKHLFRRNNGTLVVQSLHGVFKVKDTTTLQQHLVDGRDMIIIRMPKDFPPFPQKLKFREPQREERICLVTTNFQTKSMSSMVSDTSCTFPSGDGIFWKHWIQTKDGQCGSPLVSTRDGFIVGIHSASNFTNTNNYFTSVPKNFMELLTNQEAQQWVSGWRLNAYSVLWGGHKVFMVKPEEPFQPVKEATQL [D208Y],0.0658,–,0.0625,0.0732,0.0583,0.0488,0.0575,0.0654,0.0587,0.0659,0.0409,0.0625,0.0578,–,0.0568,0.0539,–,–
MGESLFKGPRDYNPISSSICHLTNESDGHTTSLYGIGFGPFIITNKHLFRRNNGTLVVQSLHGVFKVKDTTTLQQHLVDGRDMIIIRMPKDFPPFPQKLKFREPQREERICLVTTNFQTKSMSSMVSDTSCTFPSGDGIFWKHWIQTKDGQCGSPLVSTRDGFIVGIHSASNFTNTNNYFTSVPKNFMELLTNQEAQQWVSGWRLNAWSVLWGGHKVFMVKPEEPFQPVKEATQL [D208W],0.0607,0.0528,0.0527,0.0514,0.0704,0.052,0.0545,–,0.0551,0.0582,–,–,0.0846,0.0538,0.0614,0.0693,–,–
MGESLFKGPRDYNPISSSICHLTNESDGHTTSLYGIGFGPFIITNKHLFRRNNGTLVVQSLHGVFKVKDTTTLQQHLVDGRDMIIIRMPKDFPPFPQKLKFREPQREERICLVTTNFQTKSMSSMVSDTSCTFPSGDGIFWKHWIQTKDGQCGSPLVSTRDGFIVGIHSASNFTNTNNYFTSVPKNFMELLTNQEAQQWVSGWRLNADSVLWGGHKVFMVKPLEPFQPVKEATQL [E223L],0.0724,0.0681,0.0554,0.0661,0.0569,–,0.0364,0.0667,–,0.0674,0.0574,0.064,0.0544,0.0434,0.0601,0.0864,–,–
MGESLFKGPRDYNPISSSICHLTNESDGHTTSLYGIGFGPFIITNKHLFRRNNGTLVVQSLHGVFKVKDTTTLQQHLVDGRDMIIIRMPKDFPPFPQKLKFREPQREERICLVTTNFQTKSMSSMVSDTSCTFPSGDGIFWKHWIQTKDGQCGSPLVSTRDGFIVGIHSASNFTNTNNYFTSVPKNFMELLTNQEAQQWVSGWRLNADSVLWGGHKVFMQKPEEPFQPVKEATQL [V220Q],0.101,0.0867,0.0615,0.0658,0.0852,0.0696,0.0765,0.0892,0.0751,0.0671,0.0672,–,0.0717,0.079,0.0609,0.0767,–,0.0731
